The antibiotic and cytotoxicity screens of Wong et al. (2023)
The other results are listed elsewhere or left out.

Key:
HSkMC = human skeletal muscle cells; test: cytotoxicity call (relative viability < 0.9); details: 10 µM
HepG2 = test: cytotoxicity call (relative viability < 0.9); details: 10 µM
S. aureus RN4220 = test: growth inhibition call (relative growth <= 0.2); details: 50 µM

With `CCO[C@H]1CC(C)(C)NC(=S)N1` the cytotoxicity call (HSkMC) was “inactive”, the cytotoxicity call (HepG2) was “inactive” and the growth inhibition call (S. aureus RN4220) was “inactive”.

In the case of `C[C@H]1CN([C@@H](C)CO)C(=O)Cc2cc(NC(=O)Cn3cnnn3)ccc2O[C@H]1CN(C)C(=O)Nc1ccc(F)cc1`, the cytotoxicity call (HSkMC) is reported as “inactive”, the cytotoxicity call (HepG2) is reported as “inactive” and the growth inhibition call (S. aureus RN4220) is reported as “inactive”.

For `O=C(O)CN(CCN(CC(=O)O)CC(=O)O)CC(=O)O`, the cytotoxicity call (HSkMC) was “inactive”, the cytotoxicity call (HepG2) was “inactive” and the growth inhibition call (S. aureus RN4220) was “inactive”.

`C[C@H]1CN([C@@H](C)CO)C(=O)Cc2cc(NC(=O)C3CC3)ccc2O[C@@H]1CN(C)S(=O)(=O)c1cccs1` was tested, and the cytotoxicity call (HSkMC) was “inactive”, the cytotoxicity call (HepG2) was “inactive” and the growth inhibition call (S. aureus RN4220) was “inactive”.

With `C#CCN1C(=O)N(C(=O)c2ccccc2)[C@@H]2c3ccccc3O[C@@]1(COCc1ccc(OC)cc1)[C@@H]2CO[Si](C)(C)C(C)(C)C` the cytotoxicity call (HSkMC) was “inactive”, the cytotoxicity call (HepG2) was “inactive” and the growth inhibition call (S. aureus RN4220) was “inactive”.

With `C[C@H]1CN([C@@H](C)CO)C(=O)c2cc(NC(=O)Nc3ccc(C(F)(F)F)cc3)ccc2O[C@@H]1CN(C)Cc1ccccc1` the cytotoxicity call (HSkMC) was “inactive”, the cytotoxicity call (HepG2) was “inactive” and the growth inhibition call (S. aureus RN4220) was “inactive”.

With `O=C(NCC[C@H]1CCCCN1S(=O)(=O)c1ccc(F)cc1)C(=O)NCCN1CCOCC1` the cytotoxicity call (HSkMC) was “inactive”, the cytotoxicity call (HepG2) was “inactive” and the growth inhibition call (S. aureus RN4220) was “inactive”.

With `C[C@H](CO)N1C[C@H](C)[C@@H](CN(C)S(=O)(=O)c2ccc(F)cc2)Oc2ccc(NC(=O)c3ccncc3)cc2CC1=O` the cytotoxicity call (HSkMC) was “inactive”, the cytotoxicity call (HepG2) was “inactive” and the growth inhibition call (S. aureus RN4220) was “inactive”.

In the case of `CNCc1nc2ccsc2c(=O)[nH]1`, the cytotoxicity call (HSkMC) is reported as “inactive”, the cytotoxicity call (HepG2) is reported as “inactive” and the growth inhibition call (S. aureus RN4220) is reported as “inactive”.

For `C[C@H]1CN([C@@H](C)CO)C(=O)Cc2cc(NS(C)(=O)=O)ccc2O[C@H]1CN(C)S(=O)(=O)c1ccc(Cl)cc1`, the cytotoxicity call (HSkMC) was “inactive”, the cytotoxicity call (HepG2) was “inactive” and the growth inhibition call (S. aureus RN4220) was “inactive”.

`NCC(=O)Nc1ccc(Br)cc1` was tested, and the cytotoxicity call (HSkMC) was “inactive”, the cytotoxicity call (HepG2) was “inactive” and the growth inhibition call (S. aureus RN4220) was “inactive”.

With `C[C@@H]1CCCCO[C@@H](CN(C)C(=O)C2CCCCC2)[C@@H](C)CN([C@H](C)CO)C(=O)c2cc(NC(=O)Nc3cccc4ccccc34)ccc2O1` the cytotoxicity call (HSkMC) was “inactive”, the cytotoxicity call (HepG2) was “inactive” and the growth inhibition call (S. aureus RN4220) was “inactive”.

In the case of `O=C(C[C@H]1CC[C@H]2[C@@H](COC[C@@H](O)CN2C(=O)Nc2ccc(Cl)c(Cl)c2)O1)NCc1ccncc1`, the cytotoxicity call (HSkMC) is reported as “inactive”, the cytotoxicity call (HepG2) is reported as “inactive” and the growth inhibition call (S. aureus RN4220) is reported as “inactive”.

`Cc1noc(C)c1NC(=O)Nc1ccc2c(c1)C(=O)N([C@H](C)CO)C[C@@H](C)[C@@H](CN(C)Cc1ccc(Cl)c(Cl)c1)O2` was tested, and the cytotoxicity call (HSkMC) was “inactive”, the cytotoxicity call (HepG2) was “inactive” and the growth inhibition call (S. aureus RN4220) was “inactive”.

For `C[C@H](CO)N1C[C@H](C)[C@H](CN(C)C(=O)c2ccccc2)OCCCC[C@H](C)Oc2ccc(NC(=O)NC3CCCCC3)cc2C1=O`, the cytotoxicity call (HSkMC) was “inactive”, the cytotoxicity call (HepG2) was “inactive” and the growth inhibition call (S. aureus RN4220) was “inactive”.

For `O=C(N[C@@H](c1ccc(-c2ccccc2)cc1)c1cnccn1)C1CCN(Cc2ccc(Cl)c(Cl)c2)CC1`, the cytotoxicity call (HSkMC) was “inactive”, the cytotoxicity call (HepG2) was “inactive” and the growth inhibition call (S. aureus RN4220) was “inactive”.

For `CNC(=O)C[C@@H]1CC[C@H]2[C@@H](COC[C@@H](O)CN2C(=O)Nc2cccc(OC)c2)O1`, the cytotoxicity call (HSkMC) was “inactive”, the cytotoxicity call (HepG2) was “inactive” and the growth inhibition call (S. aureus RN4220) was “inactive”.

For `CC(C)NC(=O)Nc1ccc2c(c1)CC(=O)N([C@H](C)CO)C[C@H](C)[C@H](CN(C)Cc1ccc3c(c1)OCO3)O2`, the cytotoxicity call (HSkMC) was “inactive”, the cytotoxicity call (HepG2) was “inactive” and the growth inhibition call (S. aureus RN4220) was “inactive”.

With `CCN(CC)CCOc1ccc(Nc2ncc3cc(-c4c(Cl)cccc4Cl)c(=O)n(C)c3n2)cc1` the cytotoxicity call (HSkMC) was “active”, the cytotoxicity call (HepG2) was “active” and the growth inhibition call (S. aureus RN4220) was “inactive”.

`CCS(=O)(=O)Nc1ccc2c(c1)C(=O)N(C)C[C@@H](OC)[C@@H](C)CN(CCC(F)(F)F)[C@H](C)CO2` was tested, and the cytotoxicity call (HSkMC) was “inactive”, the cytotoxicity call (HepG2) was “inactive” and the growth inhibition call (S. aureus RN4220) was “inactive”.

`COCC(=O)N1CC(=O)N2[C@H](C1)[C@H](c1ccc(C#Cc3cccnc3)cc1)[C@@H]2CO` was tested, and the cytotoxicity call (HSkMC) was “inactive”, the cytotoxicity call (HepG2) was “inactive” and the growth inhibition call (S. aureus RN4220) was “inactive”.

For `C[C@@H]1CCCCO[C@@H](CN(C)Cc2ccc(C(F)(F)F)cc2)[C@H](C)CN([C@@H](C)CO)C(=O)c2cc(NC(=O)c3ccncc3)ccc2O1`, the cytotoxicity call (HSkMC) was “inactive”, the cytotoxicity call (HepG2) was “inactive” and the growth inhibition call (S. aureus RN4220) was “inactive”.

With `C[C@@H]1CN([C@@H](C)CO)C(=O)Cc2cc(NC(=O)Cn3cnnn3)ccc2O[C@H]1CN(C)Cc1ccc(-c2ccccc2)cc1` the cytotoxicity call (HSkMC) was “inactive”, the cytotoxicity call (HepG2) was “inactive” and the growth inhibition call (S. aureus RN4220) was “inactive”.

`CC1=C(C(=O)O)N2C(=O)[C@@H](NC(=O)[C@H](N)c3ccc(O)cc3)[C@H]2SC1` was tested, and the cytotoxicity call (HSkMC) was “inactive”, the cytotoxicity call (HepG2) was “inactive” and the growth inhibition call (S. aureus RN4220) was “active”.

With `COc1ccc(C#Cc2ccc([C@@H]3[C@H]4CN(S(=O)(=O)c5cn(C)cn5)CCCCN4[C@H]3CO)cc2)cc1` the cytotoxicity call (HSkMC) was “inactive”, the cytotoxicity call (HepG2) was “inactive” and the growth inhibition call (S. aureus RN4220) was “inactive”.

For `COc1ccc2c3c(n(c2c1)C)[C@H](CO)N(Cc1ccccc1)C[C@]13CCN(CC1)C(=O)Nc1cccc(c1)F`, the cytotoxicity call (HSkMC) was “inactive”, the cytotoxicity call (HepG2) was “inactive” and the growth inhibition call (S. aureus RN4220) was “inactive”.

For `CN(C)CCN(Cc1ccccc1)c1ccccn1.O=C(O)CC(O)(CC(=O)O)C(=O)O`, the cytotoxicity call (HSkMC) was “inactive”, the cytotoxicity call (HepG2) was “active” and the growth inhibition call (S. aureus RN4220) was “inactive”.

In the case of `COCC#Cc1ccc2c(c1)O[C@@H](CN(C)Cc1ccc3c(c1)OCO3)[C@@H](C)CN([C@@H](C)CO)S2(=O)=O`, the cytotoxicity call (HSkMC) is reported as “inactive”, the cytotoxicity call (HepG2) is reported as “inactive” and the growth inhibition call (S. aureus RN4220) is reported as “inactive”.

With `COc1ccc(NC(=O)Nc2cccc3c2O[C@@H](CN(C)Cc2ccc(C(F)(F)F)cc2)[C@H](C)CN([C@H](C)CO)C3=O)cc1` the cytotoxicity call (HSkMC) was “inactive”, the cytotoxicity call (HepG2) was “inactive” and the growth inhibition call (S. aureus RN4220) was “inactive”.
